# Publication PMC6919601, “Identification of Plasmodium dipeptidyl aminopeptidase allosteric inhibitors by high throughput screening” (PLoS ONE, 2019)
# Among all 110,000 compounds or so, about 230 (0.21%) showed an effect of 50% or more. The list shows a part of the results.
# Target: DPAP1 (Plasmodium falciparum, UniProt Q8IIJ9)
# Assay: primary screen, percent inhibition; read by cleavage of a fluorogenic dipeptide substrate; higher = more effect of the substance
# Set-up: species or system P. falciparum D10 trophozoite lysates; single well
# 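Note: 30 min substrate incubation versus DMSO and 10 µM JCP410 controls.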
# Sequence of DPAP1 (Q8IIJ9 whole entry, looked up): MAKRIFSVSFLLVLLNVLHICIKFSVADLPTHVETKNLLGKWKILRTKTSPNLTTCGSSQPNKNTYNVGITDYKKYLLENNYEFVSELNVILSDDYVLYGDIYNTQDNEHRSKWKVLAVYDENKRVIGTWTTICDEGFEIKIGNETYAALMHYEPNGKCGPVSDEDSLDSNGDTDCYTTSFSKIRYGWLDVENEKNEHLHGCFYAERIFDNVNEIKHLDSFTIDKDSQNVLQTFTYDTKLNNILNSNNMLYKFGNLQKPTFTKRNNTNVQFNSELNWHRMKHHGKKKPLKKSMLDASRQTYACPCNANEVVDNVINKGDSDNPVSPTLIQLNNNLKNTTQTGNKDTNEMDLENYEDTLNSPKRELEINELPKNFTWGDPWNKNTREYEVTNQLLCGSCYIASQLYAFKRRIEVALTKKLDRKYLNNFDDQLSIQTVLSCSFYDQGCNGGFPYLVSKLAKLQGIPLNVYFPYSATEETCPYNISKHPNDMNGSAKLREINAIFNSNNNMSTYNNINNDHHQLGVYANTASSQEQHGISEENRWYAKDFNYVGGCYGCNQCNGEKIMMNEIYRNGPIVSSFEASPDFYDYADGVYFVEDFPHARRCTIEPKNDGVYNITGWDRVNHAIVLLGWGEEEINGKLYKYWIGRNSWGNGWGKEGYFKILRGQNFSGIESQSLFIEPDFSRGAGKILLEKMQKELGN
row,Compound,% Inhibition @ 10 uM
1,Cc1ccc(NC(=O)CSCC(=O)Nc2cccc(C)c2C)cc1,5.09%
2,Cc1ccccc1NC(=O)NCc1cccnc1,-3.12%
3,Cc1cc(NC(=O)CCc2ccccc2)no1,9.14%
4,Cc1ccc(C(C)C)c(OCC(=O)NN)c1,4.73%
5,CC(NC(=O)c1ccccc1NC(=O)Cc1ccccc1)c1ccccc1 (stereo not drawn),5.31%
6,CCOc1cc(C)c(S(=O)(=O)Nc2cccnc2)cc1C,-1.72%
7,CCN1C(=O)S/C(=C\c2ccc(N3CCOCC3)cc2C)C1=O,1.64%
8,Cc1c(C(=O)N2CCCC(C)C2)oc2ccccc12 (stereo not drawn),3.21%
9,CN1C(=O)C(=Cc2cc(Br)c(O)c(Br)c2)C(=O)N(C)C1=O,10.4%
10,Cn1c(=O)c2c(nc(Cl)n2CC(=O)N2CCCCC2)n(C)c1=O,-1.63%
11,O=C(O)c1ccc(S(=O)(=O)c2ccc3c(c2)C(=O)N(c2ccc(O)cc2)C3=O)cc1,-1.89%
12,CC(C)Cn1cc(NC(=O)Nc2nccs2)c2ccccc2c1=O,-2.52%
13,Cc1nn(C)c(C(=O)N(C)C23CC4CC(CC(C4)C2)C3)c1Br,-3.85%
14,CC1(C)CC(=O)c2sc(NC(=O)c3ccc(Cl)c(Cl)c3)nc2C1,-1.47%
15,O=C(CSc1ncn(-c2ccccc2)n1)Nc1nc(-c2ccccc2)cs1,2.95%
16,COC(=O)Nc1sc(C(=O)N(C)C)c(C)c1C(=O)OC,-1.1%
17,COC(=O)CCCC[C@H]1SC[C@H]2NC(=O)N[C@@]21O,2.22%
18,O=C(c1ccccn1)c1conc1C(=O)c1cccs1,1.82%
19,CC1=C(CCN(CCCN(C)C)CCCN(C)C)C(C)(C)CCC1,-2.21%
20,Cc1ccc(C)c(S(=O)(=O)Nc2cc(SCC(=O)O)c(O)c3ccccc23)c1,-0.736%
21,Fc1ccc(NCc2ccc(OCc3ccccc3)cc2)cc1,-0.292%
22,O=C1c2ccccc2C(=O)c2cc(S(=O)(=O)n3cnc4ccccc43)ccc21,2.94%
23,COc1ccc(-c2onc(C)c2C)cc1S(=O)(=O)Nc1cc(C)nc2ccccc12,-0.0795%
24,COc1ccc(C(=O)n2nc(-c3cccnc3)nc2N)cc1OC,-1.33%
25,C=CCNC(=O)/C(C#N)=C/c1c(Oc2ccc(C)cc2)nc2ccccn2c1=O,1.19%
26,Cc1noc(C)c1S(=O)(=O)N1CCC(C(=O)NCCCN2CC(C)CC(C)C2)CC1 (stereo not drawn),-2.99%

row,Compound,% Inhibition @ 10 uM
1,Cc1ccc2nc(NC(=O)CSc3nnc(Cc4cccn4C)n3C)sc2c1,3.33%
2,CC1(C)CC(=O)c2cc(C(=O)NC3CCCCC3)c(O)nc2C1,-0.601%
3,Cc1ccnc2nc(NC(=O)C(C)C)nn12,2.05%
4,CN1CCN(c2cc3c(cc2N)c(=O)c(C(=O)O)c2n3CCC2)CC1,-10.1%
5,O=C(O)CCC(=O)N1N=C(c2c(O)nc3ccc(Cl)cc3c2-c2ccccc2)CC1c1ccco1 (stereo not drawn),-5.13%
6,CC(Oc1ccccc1)C(=O)N(Cc1nc(-c2ccccc2)no1)C(C)C (stereo not drawn),-0.352%
7,Cc1c(C2(c3c(C)n(C)n(-c4ccccc4)c3=O)C(=O)Nc3ccc([N+](=O)[O-])cc32)c(=O)n(-c2ccccc2)n1C,-8.37%
8,Fc1cccc(CN2CCC(N3CCCCC3)CC2)c1,-4.95%
9,CC(C)/C=C1\CC/C(=C\c2cccnc2)C1=O,1.83%
10,O=C(c1ccc(F)cc1)N1CCN(C2C3CC4CC(C3)CC2C4)CC1 (stereo not drawn),-1.55%
11,COc1ccccc1-c1noc(CCC(=O)Nc2cccnc2)n1,2.89%
12,CCCOc1ccc(C2c3c(oc4ccccc4c3=O)C(=O)N2c2nc(C)c(C)s2)cc1OCC (stereo not drawn),0.189%
13,COc1ccc(C(=O)Nc2ccc(C(=O)N3CCC(C)CC3)cc2)cc1OC,-3.33%
14,Cc1ccccc1CN1CCN(CCO)CC1,-3.44%
15,c1coc(-c2nnc(SCc3nc4ccccc4[nH]3)o2)c1,1.91%
16,CC1Oc2ccccc2C=C1/C=C/C(=O)O (stereo not drawn),3.6%
17,CCOC(=O)C1=C(C)NC(=O)CC1c1ccc(Cl)c(Cl)c1 (stereo not drawn),-0.13%
18,CC1=CC(C)C2COC(c3ccccc3O)C1C2C (stereo not drawn),-6.6%
19,CCOC(=O)c1sc2nc3n(c(=O)c2c1C)CCC3,-0.415%
20,COc1ccc(S(=O)(=O)N(CC(=O)Nc2cccc(Cl)c2C)c2ccc(F)cc2)cc1OC,-5.21%
21,Cc1ccc(NC(=O)c2cc3c(-c4ccccc4F)nn(C)c3s2)nc1,-5.1%
22,CC(NC(=O)CN(C)S(=O)(=O)c1cc(Cl)ccc1Cl)c1ccccc1 (stereo not drawn),2.44%
23,O=C1c2ccccc2NCN1CC(O)c1cccc2ccccc12 (stereo not drawn),0.755%
24,C=CCc1cccc2cc(C(C)=O)c(=O)oc12,2.13%
25,CC(C)(CN1CCNCC1)NS(=O)(=O)c1ccccc1,-0.233%
